{
  "source": "the supplement of paper PMC6531468",
  "note": "This is one part of the list. Values come from read counts of a selection and are noisy. Each score is taken over the longer molecules that contain the sequence shown.",
  "data": [
    {"target": "IMP3 full-length (UniProt O00425)", "sequence (O00425 whole entry)": "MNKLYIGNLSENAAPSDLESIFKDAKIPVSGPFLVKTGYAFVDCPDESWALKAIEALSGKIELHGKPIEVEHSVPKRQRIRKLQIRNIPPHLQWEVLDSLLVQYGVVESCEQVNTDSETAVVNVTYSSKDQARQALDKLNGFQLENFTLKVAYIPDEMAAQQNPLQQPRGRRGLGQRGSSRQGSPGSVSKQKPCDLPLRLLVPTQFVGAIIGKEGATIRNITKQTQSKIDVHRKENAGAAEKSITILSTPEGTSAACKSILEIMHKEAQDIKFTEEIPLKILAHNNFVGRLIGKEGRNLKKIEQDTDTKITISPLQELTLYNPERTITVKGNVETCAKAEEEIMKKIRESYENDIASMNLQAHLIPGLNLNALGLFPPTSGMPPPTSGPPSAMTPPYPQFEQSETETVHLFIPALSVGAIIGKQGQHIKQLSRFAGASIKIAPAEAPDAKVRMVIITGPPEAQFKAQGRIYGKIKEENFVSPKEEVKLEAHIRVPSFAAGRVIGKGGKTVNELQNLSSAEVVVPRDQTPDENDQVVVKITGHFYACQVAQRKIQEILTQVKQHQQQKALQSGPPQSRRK", "assay": "6-mer SELEX enrichment z-score vs GST control; IMP3 is the RNA-binding protein IGF2BP3; higher = more enriched by binding", "details": "construct: FL IMP3 (1-579); SELEX round: R4", "method": "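SELEX-seq with GST-tagged full-length IMP3 and an N40 RNA pool, round 4. Each 6-mer is scored as an enrichment z-score of sequence tags containing it, normalised to the matching GST SELEX round. RNA written as DNA (T = U).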", "values": [
      {"sequence": "AATATG", "6-mer SELEX enrichment z-score": -0.008},
      {"sequence": "GACTTA", "6-mer SELEX enrichment z-score": -0.567},
      {"sequence": "GCGCAG", "6-mer SELEX enrichment z-score": 0.042},
      {"sequence": "GTTTCG", "6-mer SELEX enrichment z-score": -0.049},
      {"sequence": "GCATTA", "6-mer SELEX enrichment z-score": 0.568},
      {"sequence": "TGACTC", "6-mer SELEX enrichment z-score": -0.566},
      {"sequence": "CACGTA", "6-mer SELEX enrichment z-score": 0.02},
      {"sequence": "TGAACT", "6-mer SELEX enrichment z-score": -0.589},
      {"sequence": "CTTACA", "6-mer SELEX enrichment z-score": 0.571},
      {"sequence": "TTCATC", "6-mer SELEX enrichment z-score": 1.49},
      {"sequence": "GCGGTC", "6-mer SELEX enrichment z-score": 0.665},
      {"sequence": "TGCCGC", "6-mer SELEX enrichment z-score": 0.235},
      {"sequence": "CGCCCA", "6-mer SELEX enrichment z-score": -0.682},
      {"sequence": "CCGAAG", "6-mer SELEX enrichment z-score": -1.08},
      {"sequence": "GCAGCA", "6-mer SELEX enrichment z-score": 2.09},
      {"sequence": "GGCAGA", "6-mer SELEX enrichment z-score": 1.29},
      {"sequence": "TATATT", "6-mer SELEX enrichment z-score": 0.501},
      {"sequence": "CAGATG", "6-mer SELEX enrichment z-score": 0.365},
      {"sequence": "TAGAGT", "6-mer SELEX enrichment z-score": -0.038},
      {"sequence": "AGTGGA", "6-mer SELEX enrichment z-score": -0.04},
      {"sequence": "TCGACC", "6-mer SELEX enrichment z-score": -0.508},
      {"sequence": "ATACCC", "6-mer SELEX enrichment z-score": -1.18},
      {"sequence": "CTAGGG", "6-mer SELEX enrichment z-score": -0.11},
      {"sequence": "GCCCTA", "6-mer SELEX enrichment z-score": -0.699},
      {"sequence": "CTAACC", "6-mer SELEX enrichment z-score": -1.5},
      {"sequence": "GGCGTC", "6-mer SELEX enrichment z-score": 0.869},
      {"sequence": "GGTGTC", "6-mer SELEX enrichment z-score": 0.102},
      {"sequence": "GATGAC", "6-mer SELEX enrichment z-score": -0.483},
      {"sequence": "GCCATG", "6-mer SELEX enrichment z-score": 0.33},
      {"sequence": "CCGCCG", "6-mer SELEX enrichment z-score": 0.277},
      {"sequence": "TACCAC", "6-mer SELEX enrichment z-score": -0.467},
      {"sequence": "CCCCTC", "6-mer SELEX enrichment z-score": -0.54},
      {"sequence": "TCTCCG", "6-mer SELEX enrichment z-score": 0.089},
      {"sequence": "CACGCA", "6-mer SELEX enrichment z-score": 2.02},
      {"sequence": "GAGTAC", "6-mer SELEX enrichment z-score": -0.086},
      {"sequence": "GGGACA", "6-mer SELEX enrichment z-score": 0.361},
      {"sequence": "CAGACC", "6-mer SELEX enrichment z-score": -0.676},
      {"sequence": "GCTTTA", "6-mer SELEX enrichment z-score": 0.01},
      {"sequence": "CTGAAA", "6-mer SELEX enrichment z-score": -1.42},
      {"sequence": "TGCTTC", "6-mer SELEX enrichment z-score": 0.11}
    ]}
  ]
}
